± gives the standard deviation of the averaged measurements. Whole data set: some 33,000 sequences, median “E-score (dimensionless, -0.5 to 0.5)” near -0.049, cut for the highest 2% near 0.37. This is one part of the list.
System: T1, PmTbr T-box DNA-binding domain (GST fusion)
T1 sequence: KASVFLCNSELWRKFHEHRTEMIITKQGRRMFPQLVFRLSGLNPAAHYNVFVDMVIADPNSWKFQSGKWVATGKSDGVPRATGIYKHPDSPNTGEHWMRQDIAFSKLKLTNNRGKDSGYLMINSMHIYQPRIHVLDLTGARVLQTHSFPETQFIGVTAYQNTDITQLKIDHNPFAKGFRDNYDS
Experiment: PBM E-score of 8-mer (E-score (dimensionless, -0.5 to 0.5)); Tbr is Tbrain of the sea star Patiria miniata (Pm) or the sea urchin Strongylocentrotus purpuratus (Sp); higher = stronger binding preference; most listed sequences are background and not binding sites
Conditions: the construct has about 5 more residues each side
In short: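 Primer extension turned Universal Agilent oligonucleotide arrays double-stranded. They were incubated with 200 nM protein in PBS (pH 7.5); the protein was a GST-fused Tbr T-box DNA-binding domain expressed in BL21 E. coli at 20 °C and purified on glutathione. Every ungapped 8-mer was scored from the scanned, quantified probe intensities, and the Universal PBM Analysis Suite gave each an enrichment E-score averaged over duplicate arrays.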

Sequence	PBM E-score of 8-mer
CAGTTATG	-0.0798 ± 0.068
AGGCGTCG	0.353 ± 0.029
CCCCGCCA	0.124 ± 0.046
AGTATGCG	-0.0996 ± 0.096
GCACCCGA	0.15 ± 0.0018
AAATAATA	-0.0525 ± 0.045
AACGTGCT	0.1788 ± 0.00044
AGACTTAT	0.0325 ± 0.08
CGGCAGAC	-0.164 ± 0.07
ACCAACGG	0.108 ± 0.035
AGCGGTTG	0.0895 ± 0.017
AGCAGGGG	-0.0678 ± 0.061
ATGGTGCC	0.193 ± 0.051
CTGTGCTC	-0.168 ± 0.026
GAACTCAA	-0.229 ± 0.0061
GAAAGGGA	-0.177 ± 0.048
GCACTAAC	0.119 ± 0.047
AGCGGCTG	-0.138 ± 0.017
AATTCAGC	0.0267 ± 0.017
ATCCTGGC	-0.133 ± 0.079
AATTTTGT	-0.104 ± 0.14
AGCACGAC	-0.0584 ± 0.051

Sequence	PBM E-score of 8-mer
CACAGTCC	0.0117 ± 0.032
CCACTGTA	-0.029 ± 0.035
AATCGGAC	-0.121 ± 0.071
CAGCGGCA	0.0802 ± 0.04
AAGTCCAC	-0.0706 ± 0.012
GCGTATCA	-0.0253 ± 0.18
ACTGAGCG	0.0421 ± 0.036
GGCGTGAA	0.4668 ± 0.002
ACCAGTGA	-0.0342 ± 0.015
CTAGCCTC	-0.0732 ± 0.03
GAATTGAA	-0.283 ± 0.026
CGACTTGA	0.11 ± 0.011
CACACTAG	0.261 ± 0.048
ACGACGTG	0.244 ± 0.037
TGACAGCA	0.3043 ± 0.0026
GGCTACAA	-0.0179 ± 0.0065
ACGAATGA	-0.0786 ± 0.048
GCCTACCC	-0.0367 ± 0.028
ATCGGAAA	0.0591 ± 0.014
GTTCAAGA	-0.181 ± 0.098
ATGGAGCA	-0.186 ± 0.018
GCCCTACC	-0.194 ± 0.057

Sequence	PBM E-score of 8-mer
CCGCCGTC	-0.0956 ± 0.042
AACTCCTC	-0.1 ± 0.028
GCGGCATA	-0.202 ± 0.088
TACTTACA	0.0476 ± 0.0034
TAATGAAA	-0.00179 ± 0.032
CAGGCGAG	0.183 ± 0.017
AGGACATC	-0.0862 ± 0.062
ATGGTGGG	-0.245 ± 0.065
CGCGCAGA	0.112 ± 0.011
ACATAACG	0.191 ± 0.033
CCCCGTGC	-0.174 ± 0.04
CCTTTATA	-0.271 ± 0.017
CGCGTACC	0.0845 ± 0.065
TACGACAA	0.0864 ± 0.019
GTGCGAAC	0.4794 ± 0.0017
AGCCTTTA	-0.135 ± 0.049
ATCGCGGA	0.146 ± 0.0059
CTACAGTC	-0.0672 ± 0.021
ACCACTCC	0.0476 ± 0.03
ACAGGTAT	0.104 ± 0.021
AGAAGATG	-0.167 ± 0.034
CCATGTTC	-0.0843 ± 0.03

Sequence	PBM E-score of 8-mer
AGATCCGG	-0.12 ± 0.016
AAAAGAAT	-0.0614 ± 0.05
GACGCGAA	0.126 ± 0.066
ACGCACGT	0.103 ± 0.026
ACGATAGA	-0.228 ± 0.007
TCTAAAAA	-0.144 ± 0.029
ACCTTTTC	0.0667 ± 0.087
CTGCAGTA	0.0389 ± 0.03
GTTTGACA	0.3158 ± 0.0021
CCCGCCGC	-0.00498 ± 0.011
TGAAAGAA	-0.0648 ± 0.036
CGGGTAGA	-0.156 ± 0.035
AAGGGGAG	-0.162 ± 0.035
CATCACCA	0.164 ± 0.015
CCTCCACG	-0.0474 ± 0.043
ATTTGCGA	0.193 ± 0.022
ACCTCATG	0.155 ± 0.026
GCCGCAGC	-0.0955 ± 0.022
GGAGAATA	-0.192 ± 0.067
GTTTTAAA	-0.0173 ± 0.1

— the supplement of paper PMC4166925
